# According to PubChem BioAssay AID1508624 (National Center for Advancing Translational Sciences (NCATS), 2021):
# In all, about 48,000 compounds went through this assay and about 120 (0.25%) were called active. Inconclusive results (about 4%) are left out. Calls come from the whole dose curve; as a rule, active = well fitted activation curve with a large enough effect; inconclusive = small, poorly fitted or top-dose-only effect, or another doubt; inactive = no such curve, though single readings can be large or run the other way. The list shows a part of the results.
# Experiment: Primary qHTS for Identification of Small Molecule Activators of Huntingtin-Antisense Promoter Activity; note: nearly all actives have a fitted effect of over 55% in size
# Details: HEK293 HTT-AS promoter firefly luciferase reporter (activity 0% = vehicle and -100% = no light), 24 h; series mostly up to 57.5 µM; activity change, positive = activation: at the top concentration
# In short: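 Quantitative HTS used concentration series of up to 57.5 uM final on HEK293 luciferase reporter cells, 24 h at 37 degrees C. Readout was Dual-Glo firefly luminescence.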
# Potency is the fitted concentration of half-maximal effect.
SMILES,"activity change, positive = activation",Potency
COc1ccc(-n2c(-c3ccco3)nc3c(cnn3-c3ccc(Cl)cc3)c2=O)cc1,inactive: -53.2%,–
CC1(C)O[C@H]2[C@@H](O1)[C@@H](C(=O)Nc1ccccc1C(F)(F)F)O[C@@H]1OC(C)(C)O[C@@H]12,inactive: -45.6%,–
CCOc1ccc(/C=C/c2nc(C#N)c(NCc3ccccc3)o2)cc1,inactive: -42.7%,–
O=C(CCC1N=C2c3ccccc3N=C(SCc3ccc(F)cc3)N2C1=O)NCCc1ccccc1 (stereo not given),inactive: -38.3%,–
COc1ccc(Cl)cc1NC(=O)C(C)Sc1nc2c(c(=O)[nH]1)CCCC2 (stereo not given),inactive: -12.7%,–
CCc1ccc(NC(=O)CN(c2ccc(Cl)cc2)S(=O)(=O)c2ccsc2C(=O)OC)cc1,inactive: -32.2%,–
CCOc1ccc(NC(=O)c2c(NCc3cccc(OC)c3OC)sc3c2CCC3)cc1,inactive: -5.92%,–
Nc1c(C(=O)Nc2ccccc2Cl)c2ccccn2c1C(=O)c1ccccc1,inactive: 9.08%,–
O=C1NCN(c2ccccc2)C12CCN(CCCC(c1ccc(F)cc1)c1ccc(F)cc1)CC2,inactive: -32.3%,–
O=C(C1CCCN(S(=O)(=O)c2cccc3nsnc23)C1)N1CCN(c2ccccc2)CC1 (stereo not given),inactive: -48.3%,–
CCOC(=O)N1CCN(C(=O)CN(c2ccccc2F)S(=O)(=O)c2ccc(C)cc2)CC1,inactive: -23.3%,–
Cc1cc(N2CCC(C)CC2)nc2ccc(NC(=O)Cc3c(F)cccc3Cl)cc12,inactive: -23.1%,–
Cc1ccc(Cn2cc(S(=O)(=O)c3cccc(Cl)c3)c(=O)c3cc(F)c(N4CCCCC4)cc32)cc1,inactive: 7.23%,–
Cc1cc(C)cc(NC(=O)CSc2nc(=O)n(CCN3CCOCC3)c3c2CCC3)c1,inactive: -7.3%,–
Cc1ccc(Cl)cc1NC(=O)CSc1nccn1C,inactive: 2.23%,–
COC(=O)c1c(NC(=O)Cc2coc3cc(C)ccc23)sc2c1CCC2,inactive: -5.18%,–
CCOC(=O)c1noc2nc(C)n(CC(=O)NC(C)CC)c(=O)c12 (stereo not given),inactive: 1.26%,–
O=C(NCc1cccs1)c1ccc2c(c1)N(Cc1cccc(F)c1)C(=O)c1ccccc1S2,inactive: -28.8%,–
Nc1ccccc1NC(=O)c1ccc(CNC(=O)OCc2cccnc2)cc1,inactive: 5.14%,–
COc1cccc(CNC(=O)Cn2nc(-c3ccc(Cl)cc3)ccc2=O)c1,inactive: -10.4%,–

SMILES,"activity change, positive = activation",Potency
Cc1cccc2c1N(Cc1ccccc1OCCC(C)C)C(=O)C2=O,inactive: -32.3%,–
CC(=O)c1ccc(NC(=O)c2cc(C)nc3c2c(C)nn3-c2ccc(C)cc2)cc1,inactive: -9.69%,–
COc1ccc(-n2c(=O)c3c(c4cc(OC)ccc4n3C)n(Cc3cccc(C)c3)c2=O)cc1,inactive: -12%,–
COc1ccc2c(c1)c(=O)c(S(=O)(=O)c1ccccc1)cn2CC(=O)Nc1ccc(C)c(Cl)c1,inactive: -10.7%,–
CCC(C(=O)Nc1cccc(-c2nc3cccnc3s2)c1C)c1ccccc1 (stereo not given),inactive: 4.46%,–
COc1ccc(-n2cc(C(=O)NCCc3cc(OC)ccc3OC)c3ccccc3c2=O)cc1,inactive: -21.9%,–
CCOC(=O)c1c(C)[nH]c(C)c1S(=O)(=O)N1CCCC(C(=O)NCc2ccc(N(C)C)cc2)C1 (stereo not given),inactive: -3.47%,–
CC(C)CC(=O)Nc1nnc(S(=O)(=O)N(C)Cc2ccc(Cl)cc2)s1,inactive: -2.67%,–
CC1=C(C(=O)Nc2ccc(C)cc2C)C(c2cccs2)n2nc(SCc3cccc(C)c3)nc2N1 (stereo not given),inactive: -10.9%,–
CNC(=O)CSc1cn(CC(=O)N2CCCCCC2)c2ccccc12,inactive: -11%,–
CCCc1nn2c(=O)cc(COC(=O)c3ccccc3NC(=O)COc3ccccc3)nc2s1,inactive: -5.1%,–
CCOC(=O)c1cc(S(=O)(=O)Nc2cc(F)ccc2C)[nH]n1,inactive: -8.23%,–
COc1ccccc1NC(=O)c1c(NCc2ccc(C)o2)sc2c1CCCCC2,inactive: 3.52%,–
CCOC(=O)N1CCc2c(sc3c2C(=O)NC(c2cc(OC)c(OC)c(OC)c2)N3)C1 (stereo not given),inactive: -31%,–
COc1ccc(-c2cc(C(F)(F)F)n3nc(-c4ccccc4)cc3n2)cc1OC,inactive: -4.57%,–
CCc1ccc(NC(=O)Cn2c(=O)n(CCC(C)C)c(=O)c3cccnc32)cc1,inactive: -22.5%,–
CC(=O)Nc1nonc1-c1nnc(SCc2ccccc2F)n1C,inactive: -2.21%,–
CC(C)(C)C(=O)OCOC(=O)[C@@H]1N2C(=O)[C@@H](NC(=O)[C@H](N)c3ccccc3)[C@H]2SC1(C)C,inactive: -0.761%,–
CCc1ccccc1NS(=O)(=O)c1ccc2c(c1)CC(=O)N2,inactive: -21%,–
Cc1ccc(/C=C/c2onc(C)c2S(=O)(=O)N2CCC(C(=O)Nc3ccccc3C(F)(F)F)CC2)cc1,inactive: -7.23%,–

SMILES,"activity change, positive = activation",Potency
CC(=O)c1ccc(N2CCN(c3ncnc4c3c(-c3ccccc3)cn4-c3ccc(Cl)cc3)CC2)cc1,inactive: -9.44%,–
CCCCSc1nnc2n(-c3ccc(OC)cc3)c(=O)c3c4c(sc3n12)COC(C(C)C)C4 (stereo not given),inactive: 20.9%,–
COc1cc(CN2CCN(S(=O)(=O)c3ccc(NC(C)=O)cc3)CC2)cc(OC)c1OC,inactive: -2.82%,–
O=C1N(Cc2ccccc2Cl)c2ccccc2C1(O)c1c[nH]c2ccccc12 (stereo not given),inactive: -39.2%,–
CC1=C(C(=O)OCC2CCCCC2)C(c2ccc(Cl)cc2)CC(=O)N1 (stereo not given),inactive: -40.2%,–
C/C=C(/C(=C/C)c1ccc(OC(C)=O)cc1)c1ccc(OC(C)=O)cc1,inactive: -9.71%,–
CCOC(=O)c1sc2ccccc2c1S(=O)(=O)Nc1ccc(C(C)=O)cc1,inactive: 7.09%,–
CC(=O)c1ccc(NS(=O)(=O)c2c(C)nc3scc(C)n3c2=O)cc1,inactive: -28.5%,–
Cc1cccc(Cn2c(=O)n(Cc3ccccc3)c(=O)c3c2c2cc(C)ccc2n3C)c1,inactive: -6.53%,–
CCn1cc(C(=O)NCCc2ccc(OC)c(OC)c2)c(=O)c2cc(S(=O)(=O)N3CCCCCC3)ccc21,inactive: -3.56%,–
CSc1ncc(C(=O)Nc2ccc(C)c(Cl)c2)c(-c2ccccc2)n1,inactive: -38.5%,–
CCc1ccc(N(CC)C(=O)Cn2nc(Cc3cccnc3)c3ccccc3c2=O)cc1,inactive: -28.9%,–
COc1ccccc1NC(=O)c1oc2ccccc2c1NC(=O)COc1cccc(C)c1,inactive: -8.7%,–
COc1ccc(Cl)cc1NC(=O)N(C)CCc1c(C)nn(C)c1C,inactive: 7.41%,–
Cc1ccc2oc(-c3ccc(C)c(NC(=O)C(C)(C)Oc4ccc(Cl)cc4)c3)nc2c1,–,active: 10 µM
COc1ccc(OC)c(NC(=O)CN2C(=O)CC(C)Sc3ccccc32)c1 (stereo not given),inactive: -18.4%,–
CC(=O)CCC(=O)O,inactive: -2.27%,–
CCOc1ccc(NC(=O)CSc2oc(-c3ccc(F)cc3)nc2S(=O)(=O)c2ccc(C)cc2)cc1,inactive: -10.7%,–
O=C(CCOc1ccccc1)N(Cc1cccnc1)c1nc2ccc(Cl)cc2s1,inactive: 8.97%,–
Cc1ccc(CN(Cc2ccco2)C(=O)c2oc3cc(Br)ccc3c2C)cc1,inactive: -24.5%,–
